Test results as given in the supplement of paper PMC6531468.
The other results are listed elsewhere or left out. These are enrichments in a pooled selection; single values are uncertain. Each score is taken over the longer molecules that contain the sequence shown.

tested on: IMP3 KH1-4; assay: 6-mer SELEX enrichment z-score vs GST control; IMP3 is the RNA-binding protein IGF2BP3; higher = more enriched by binding; conditions: construct: KH1-4 (164-579); SELEX round: R4
Experimental: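 SELEX-seq with GST-tagged IMP3 KH1-4 (Pro164-Lys579) and an N40 RNA pool, round 4. 6-mer z-score of sequence-tag enrichment normalised to the corresponding GST SELEX round; RNA k-mers written as DNA (T for U).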

IMP3 KH1-4, sequence (chain, as listed by the source): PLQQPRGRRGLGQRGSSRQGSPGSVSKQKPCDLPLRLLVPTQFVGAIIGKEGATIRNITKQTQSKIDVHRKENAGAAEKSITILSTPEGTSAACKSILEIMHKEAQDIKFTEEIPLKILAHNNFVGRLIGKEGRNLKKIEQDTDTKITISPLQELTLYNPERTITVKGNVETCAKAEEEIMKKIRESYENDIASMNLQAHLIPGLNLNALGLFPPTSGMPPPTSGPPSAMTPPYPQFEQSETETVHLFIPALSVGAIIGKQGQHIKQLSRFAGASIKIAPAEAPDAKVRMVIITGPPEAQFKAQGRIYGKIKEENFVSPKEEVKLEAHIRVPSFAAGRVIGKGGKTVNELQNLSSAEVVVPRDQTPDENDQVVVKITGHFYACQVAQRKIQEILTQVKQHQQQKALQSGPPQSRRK

| Sequence | 6-mer SELEX enrichment z-score |
| --- | --- |
| CCCTGC | -1.05 |
| AAAACC | -2.97 |
| CACCTC | -0.728 |
| TTTTGG | -0.127 |
| TCAGGT | 0.14 |
| CTTCCT | 0.7 |
| TAAGAT | 0.997 |
| ATATAA | 2.41 |
| TGACAC | 0.552 |
| AAGGGG | 0.972 |
| GTCCCT | -0.248 |
| AATCCG | -0.522 |
| ACCAGG | -0.219 |
| TCCCAT | 0.055 |
| GCAGGG | 0.959 |
| TGATGC | -0.166 |
| AGGCTG | 0.338 |
| CAGCGT | -3.03 |
| TCGTCG | -0.188 |
| TAAGTC | 0.355 |

| Sequence | 6-mer SELEX enrichment z-score |
| --- | --- |
| AATGCG | -0.681 |
| CAGCGA | -1.54 |
| ATCAAT | 1.51 |
| AACCGA | -2.73 |
| ATGAGG | 1.17 |
| TGTTAC | 0.119 |
| ATTGAA | 0.978 |
| ATCTAG | -0.171 |
| GCTACC | -0.265 |
| AATTGT | 0.576 |
| TACCAT | 0.415 |
| GTCGAG | -0.539 |
| CCGTGA | -0.191 |
| GGGACT | -0.181 |
| TTAGCG | -0.607 |
| CGCCCC | -0.205 |
| CCGGTC | -0.09 |
| GCAGCT | 0.031 |
| GATGCA | 0.567 |
| TGTTTT | 0.194 |
